# From article PMC9911399, “Two distinct binding modes provide the RNA-binding protein RbFox with extraordinary sequence specificity”
# Where a chain is given by its changes, count along the chain named. Some of the results follow.
# B1: CACUUGC (DNA:RNA)
# RNA: GGGAGACCGGAAUUCAGAUUGUCCCACUUGCUUAAAUCCCGUCGUAGCCACCA
# DNA 1: CAATCTGAATTCCGGTCTCCC
# DNA 2: TGGTGGCTACGACGGGATT
# B2: GCGUCGG (DNA:RNA)
# RNA: B1 RNA with C25G, A26C, C27G, U29C, C31G
# DNA 1: CAATCTGAATTCCGGTCTCCC
# DNA 2: TGGTGGCTACGACGGGATT
# B3: CAGUUCU (DNA:RNA)
# RNA: B1 RNA with C27G, G30C, C31U
# DNA 1: CAATCTGAATTCCGGTCTCCC
# DNA 2: TGGTGGCTACGACGGGATT
# B4: CUCCAGA (DNA:RNA)
# RNA: B1 RNA with A26U, U28C, U29A, C31A
# DNA 1: CAATCTGAATTCCGGTCTCCC
# DNA 2: TGGTGGCTACGACGGGATT
# B5: GCCCAGU (DNA:RNA)
# RNA: B1 RNA with C25G, A26C, U28C, U29A, C31U
# DNA 1: CAATCTGAATTCCGGTCTCCC
# DNA 2: TGGTGGCTACGACGGGATT
# B6: CUUUAAA (DNA:RNA)
# RNA: B1 RNA with A26U, C27U, U29A, G30A, C31A
# DNA 1: CAATCTGAATTCCGGTCTCCC
# DNA 2: TGGTGGCTACGACGGGATT
# B7: GCCGAUG (DNA:RNA)
# RNA: B1 RNA with C25G, A26C, U28G, U29A, G30U, C31G
# DNA 1: CAATCTGAATTCCGGTCTCCC
# DNA 2: TGGTGGCTACGACGGGATT
# B8: GCACCAG (DNA:RNA)
# RNA: GGGAGACCGGAAUUCAGAUUGUCCGCACCAGUUAAAUCCCGUCGUAGCCACCA
# DNA 1: CAATCTGAATTCCGGTCTCCC
# DNA 2: TGGTGGCTACGACGGGATT
# B9: UAAGCAU (DNA:RNA)
# RNA: B8 RNA with G25U, C26A, C28G, G31U
# DNA 1: CAATCTGAATTCCGGTCTCCC
# DNA 2: TGGTGGCTACGACGGGATT
# B10: CGAUGAU (DNA:RNA)
# RNA: B1 RNA with A26G, C27A, U29G, G30A, C31U
# DNA 1: CAATCTGAATTCCGGTCTCCC
# DNA 2: TGGTGGCTACGACGGGATT
# B11: GGUAGUA (DNA:RNA)
# RNA: B8 RNA with C26G, A27U, C28A, C29G, A30U, G31A
# DNA 1: CAATCTGAATTCCGGTCTCCC
# DNA 2: TGGTGGCTACGACGGGATT
# B12: CCCAGAA (DNA:RNA)
# RNA: B1 RNA with A26C, U28A, U29G, G30A, C31A
# DNA 1: CAATCTGAATTCCGGTCTCCC
# DNA 2: TGGTGGCTACGACGGGATT
# B13: ACCGUUU (DNA:RNA)
# RNA: B1 RNA with C25A, A26C, U28G, G30U, C31U
# DNA 1: CAATCTGAATTCCGGTCTCCC
# DNA 2: TGGTGGCTACGACGGGATT
# B14: AGGUUCU (DNA:RNA)
# RNA: B1 RNA with C25A, A26G, C27G, G30C, C31U
# DNA 1: CAATCTGAATTCCGGTCTCCC
# DNA 2: TGGTGGCTACGACGGGATT
# B15: AUCGGCU (DNA:RNA)
# RNA: B1 RNA with C25A, A26U, U28G, U29G, G30C, C31U
# DNA 1: CAATCTGAATTCCGGTCTCCC
# DNA 2: TGGTGGCTACGACGGGATT
# B16: CAUCGAU (DNA:RNA)
# RNA: B1 RNA with C27U, U28C, U29G, G30A, C31U
# DNA 1: CAATCTGAATTCCGGTCTCCC
# DNA 2: TGGTGGCTACGACGGGATT
# B17: GCCACAC (DNA:RNA)
# RNA: B8 RNA with A27C, C28A, G31C
# DNA 1: CAATCTGAATTCCGGTCTCCC
# DNA 2: TGGTGGCTACGACGGGATT
# B18: UUCGUCU (DNA:RNA)
# RNA: B1 RNA with C25U, A26U, U28G, G30C, C31U
# DNA 1: CAATCTGAATTCCGGTCTCCC
# DNA 2: TGGTGGCTACGACGGGATT
# B19: CAGGGGC (DNA:RNA)
# RNA: B1 RNA with C27G, U28G, U29G
# DNA 1: CAATCTGAATTCCGGTCTCCC
# DNA 2: TGGTGGCTACGACGGGATT
# B20: UCCAGGA (DNA:RNA)
# RNA: B1 RNA with C25U, A26C, U28A, U29G, C31A
# DNA 1: CAATCTGAATTCCGGTCTCCC
# DNA 2: TGGTGGCTACGACGGGATT
# B21: AUUAAGU (DNA:RNA)
# RNA: B1 RNA with C25A, A26U, C27U, U28A, U29A, C31U
# DNA 1: CAATCTGAATTCCGGTCTCCC
# DNA 2: TGGTGGCTACGACGGGATT
# B22: CUCGAUA (DNA:RNA)
# RNA: B1 RNA with A26U, U28G, U29A, G30U, C31A
# DNA 1: CAATCTGAATTCCGGTCTCCC
# DNA 2: TGGTGGCTACGACGGGATT
# B23: CUCGCGG (DNA:RNA)
# RNA: B1 RNA with A26U, U28G, U29C, C31G
# DNA 1: CAATCTGAATTCCGGTCTCCC
# DNA 2: TGGTGGCTACGACGGGATT
# B24: CACCUCC (DNA:RNA)
# RNA: B1 RNA with U28C, G30C
# DNA 1: CAATCTGAATTCCGGTCTCCC
# DNA 2: TGGTGGCTACGACGGGATT
# B25: UUCUGAC (DNA:RNA)
# RNA: B1 RNA with C25U, A26U, U29G, G30A
# DNA 1: CAATCTGAATTCCGGTCTCCC
# DNA 2: TGGTGGCTACGACGGGATT
# B26: GUUUCAU (DNA:RNA)
# RNA: B8 RNA with C26U, A27U, C28U, G31U
# DNA 1: CAATCTGAATTCCGGTCTCCC
# DNA 2: TGGTGGCTACGACGGGATT
# B27: AGGUUAG (DNA:RNA)
# RNA: B1 RNA with C25A, A26G, C27G, G30A, C31G
# DNA 1: CAATCTGAATTCCGGTCTCCC
# DNA 2: TGGTGGCTACGACGGGATT
# B28: AGUUCCC (DNA:RNA)
# RNA: B1 RNA with C25A, A26G, C27U, U29C, G30C
# DNA 1: CAATCTGAATTCCGGTCTCCC
# DNA 2: TGGTGGCTACGACGGGATT
# B29: GCGUAGC (DNA:RNA)
# RNA: B1 RNA with C25G, A26C, C27G, U29A
# DNA 1: CAATCTGAATTCCGGTCTCCC
# DNA 2: TGGTGGCTACGACGGGATT
# B30: AACGUAU (DNA:RNA)
# RNA: B1 RNA with C25A, U28G, G30A, C31U
# DNA 1: CAATCTGAATTCCGGTCTCCC
# DNA 2: TGGTGGCTACGACGGGATT
# B31: ACCCGCG (DNA:RNA)
# RNA: B8 RNA with G25A, A27C, C29G, A30C
# DNA 1: CAATCTGAATTCCGGTCTCCC
# DNA 2: TGGTGGCTACGACGGGATT
# Molecular target: T1, RBFOX1 RRM (Homo sapiens, UniProt Q9NWB1 109-208)
# T1 sequence: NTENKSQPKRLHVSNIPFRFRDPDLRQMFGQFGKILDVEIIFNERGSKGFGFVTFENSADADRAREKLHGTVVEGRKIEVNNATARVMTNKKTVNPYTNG
# Test: EMSA; HiTS-Eq, 1 nM pool, 10 min; buffer printed only for the single-RNA assays: 10 mM Tris pH 7.5, 150 mM NaCl, 3.4 mM EDTA, 0.001% NP-40, 30 C
# Details: tags: His6 N-terminal (pET28a); label: 5' 32P
# Procedure, shortened: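 Relative association constants, normalised to the cognate motif, were derived by comparing read counts of each RNA species with those of the control reaction. The RNA sequenced was the free fraction, separated by 8% native PAGE after a 10 min equilibration in 50 µL of 1 nM 5′-radiolabelled RNA (7 randomized nucleotides) with increasing concentrations of purified wild-type or mutant RbFox RRM.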
row,Binder,binding signal
1,B1,0.00965 KA relative to UGCAUGU
2,B2,0.0208 KA relative to UGCAUGU
3,B3,0.00766 KA relative to UGCAUGU
4,B4,0.00673 KA relative to UGCAUGU
5,B5,0.0115 KA relative to UGCAUGU
6,B6,0.00297 KA relative to UGCAUGU
7,B7,0.0184 KA relative to UGCAUGU
8,B8,0.00792 KA relative to UGCAUGU
9,B9,0.0125 KA relative to UGCAUGU
10,B10,0.0156 KA relative to UGCAUGU
11,B11,0.00878 KA relative to UGCAUGU
12,B12,0.000615 KA relative to UGCAUGU
13,B13,0.00458 KA relative to UGCAUGU
14,B14,0.00564 KA relative to UGCAUGU
15,B15,0.00974 KA relative to UGCAUGU
16,B16,0.00404 KA relative to UGCAUGU

row,Binder,binding signal
1,B17,0.00584 KA relative to UGCAUGU
2,B18,0.0186 KA relative to UGCAUGU
3,B19,0.0109 KA relative to UGCAUGU
4,B20,0.00808 KA relative to UGCAUGU
5,B21,0.00481 KA relative to UGCAUGU
6,B22,0.00623 KA relative to UGCAUGU
7,B23,0.00519 KA relative to UGCAUGU
8,B24,0.000193 KA relative to UGCAUGU
9,B25,0.0186 KA relative to UGCAUGU
10,B26,0.00864 KA relative to UGCAUGU
11,B27,0.0128 KA relative to UGCAUGU
12,B28,0.00864 KA relative to UGCAUGU
13,B29,0.0152 KA relative to UGCAUGU
14,B30,0.00272 KA relative to UGCAUGU
15,B31,0.00176 KA relative to UGCAUGU
